Test results as given in PubChem BioAssay AID1159614 (National Center for Advancing Translational Sciences (NCATS), 2016).
In all, about 45,000 compounds went through this assay and about 65 (0.1%) were called active. Calls come from the whole dose curve; as a rule, active = well fitted activation curve with a large enough effect; inconclusive = small, poorly fitted or top-dose-only effect; inactive = no such curve, though single readings can be large or run the other way. Some of the results follow.

Biological target: Galactocerebrosidase (Homo sapiens) (UniProt P54803)
Chain of UniProt P54803 (P54803 whole entry, looked up): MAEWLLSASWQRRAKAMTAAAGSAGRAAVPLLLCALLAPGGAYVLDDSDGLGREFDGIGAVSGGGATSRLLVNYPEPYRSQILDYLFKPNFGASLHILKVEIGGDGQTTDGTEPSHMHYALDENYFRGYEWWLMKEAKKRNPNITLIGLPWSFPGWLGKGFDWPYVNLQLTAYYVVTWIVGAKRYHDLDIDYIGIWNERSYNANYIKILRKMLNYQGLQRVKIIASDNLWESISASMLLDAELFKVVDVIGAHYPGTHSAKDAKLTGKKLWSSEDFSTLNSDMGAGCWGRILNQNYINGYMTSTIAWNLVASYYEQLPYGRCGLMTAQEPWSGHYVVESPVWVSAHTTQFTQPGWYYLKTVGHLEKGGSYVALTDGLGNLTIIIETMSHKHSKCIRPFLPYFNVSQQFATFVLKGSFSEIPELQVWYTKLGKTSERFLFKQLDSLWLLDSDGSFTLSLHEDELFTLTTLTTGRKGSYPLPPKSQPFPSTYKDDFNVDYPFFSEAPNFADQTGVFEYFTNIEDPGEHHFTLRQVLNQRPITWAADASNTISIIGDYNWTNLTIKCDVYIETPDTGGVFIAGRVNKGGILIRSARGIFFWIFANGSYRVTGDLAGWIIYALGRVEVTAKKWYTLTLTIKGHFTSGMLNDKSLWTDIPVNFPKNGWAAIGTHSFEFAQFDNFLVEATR
Test: A Novel Cell-Based Assay to Identify Small Molecules for B -Galactocerebrosidase; note: 0% is about no effect; nearly all actives have a fitted effect of over 65% in size
Settings: 145M-Twi-hGALC-G270D cells (Twitcher mouse brain line with human GALC G270D), HMU-beta-Gal fluorescence, 48 h; series mostly up to 57.5 µM; activation: at the top concentration
Outline: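 Fluorogenic HMU-b-Gal hydrolysis (0.1 mM final, pH 5.2 citrate-phosphate with 1 mg/mL sodium taurocholate; carbonate stop buffer) measures mutant GALC activity after compound treatment of live 145M-Twi Twitcher brain cells stably carrying human GALC-G270D, with wild-type GALC line alongside; activation sought.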

activation, inactive:
COc1ccccc1/C=C(\C#N)c1nc(-c2cc3ccccc3oc2=O)cs1 -12.2%
CCC(=O)Nc1ccc(S(=O)(=O)NCc2cccn2Cc2cccc(C)c2)cc1 -0.2%
CCc1ccccc1NC(=O)Nc1ccc2snnc2c1 -3.43%
CCC(CC)C(=O)N1CCc2cc(OC)c(OC)cc2C1COc1ccc(F)cc1 (configuration not stated) -14.6%
Cc1ccc(CNC(=O)CSc2c(C(C)C)cnc3c2c(=O)n(C)c(=O)n3C)cc1 -0.198%
Cc1cccc(CC(=O)N2CC(=O)Nc3ccc(F)cc3C2c2ccccc2)c1 (configuration not stated) -6.7%
O=C(CSCc1ccc(F)cc1)NCc1ccc(F)cc1 -12.3%
COc1cc(NC(=O)CCCc2nnc3n(C)c(=O)c4sccc4n23)cc(OC)c1OC 2.05%
O=C(CSc1nc(Nc2ccc(F)c(F)c2)c2ccccc2n1)c1ccc(Cl)cc1 -5.29%
Cc1cccc(-n2ncc(C(=O)NCc3ccc4c(c3)OCO4)c2C2CCN(C(=O)OC(C)(C)C)CC2)c1 -8.98%
CCc1ccc(NS(=O)(=O)c2ccc3[nH]c4c(c3c2)CCCCCC4)cc1 -10.2%
CCOc1ccccc1Nc1nc2c(S(=O)(=O)c3ccc(C)cc3)nnn2c2ccsc12 1.06%
CC(C)(C)OC(=O)N1CCC(c2c(C(=O)NCCN3CCOCC3)cnn2-c2ccc(F)cc2F)CC1 -7.02%
CCc1ccc(NC(=O)CN2C(=O)CC(c3ccccc3)Sc3ccccc32)cc1 (configuration not stated) 4.81%
CCCCN(C)CCNC(=O)c1cc(-c2ccc(Cl)s2)nc2ccccc12 -11.6%
COc1ccc(-c2cccc(NS(=O)(=O)c3ccc(NC(C)=O)cc3)c2)nn1 -18.7%
CCCCCNC(=O)C1CCC(Cn2c(=O)c3sccc3n(CC)c2=O)CC1 (configuration not stated) -2.07%
CCc1cccc(C)c1NC(=O)CN1C(=O)c2cccc3cccc1c23 -11.4%
CC(=O)Nc1ccc(NC(=O)c2ncoc2-c2ccco2)cc1 -0.307%
Cc1ccc2nc(CSc3nnc(NC(=O)c4ccc(C(C)(C)C)cc4)s3)cc(=O)n2c1 -6.42%
Cc1ccc(-c2nc3scc(CCNS(=O)(=O)c4ccc(Oc5ccccc5)cc4)n3n2)cc1 -21.9%
CCOC(=O)c1c(-c2ccccc2)csc1NC(=O)c1nc(SCC)ncc1Cl -18.3%
COc1cccc(/C=C(\C#N)C(=O)Nc2ccc(NC(C)=O)cc2)c1OC -4.98%
COc1ccc(NC(=O)CSc2cn(CCNC(=O)c3ccc(OC)cc3)c3ccccc23)cc1 -9.35%
Cc1ccc(CN2C(=O)C3(c4ccccc42)N(c2ccc(C)c(Cl)c2)C(=O)CS3(=O)=O)cc1 (configuration not stated) -3.24%
COc1ccc(Br)cc1CNC(=O)CSc1n[nH]c(-c2ccccc2)n1 -5.8%
CCC(C)[C@H](N)c1nnc(SCc2ccc(Cl)c(Cl)c2)o1 (some centres not stated) -21.5%
